# In the supplement of paper PMC8728848:
# This is one part of the list.
# Tests used:
# Test in all cases: glycan array binding signal (z-score within array); higher = stronger binding
# Details in all cases: glycan notation: IUPAC condensed, linker removed
# Gal4S6S(b1-4)GlcNAc = molecular target: Gal4S6S(b1-4)GlcNAc
# Summary of the method: (§1)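 The binding signal is a Z-score computed within each array and averaged over linkers. Arrays of the same protein sequence at different concentrations or buffers were also averaged together. Data originate from 3228 arrays in the Consortium for Functional Glycomics database, kept only where the protein sequence was available.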
# Gal6S(b1-4)Glc = molecular target: Gal6S(b1-4)Glc
# Summary of the method: as §1
# Gal6S(b1-4)Glc6S = molecular target: Gal6S(b1-4)Glc6S
# Summary of the method: as §1
# Gal6S(b1-4)GlcNAc = molecular target: Gal6S(b1-4)GlcNAc
# Summary of the method: as §1
# GalNAc(a1-3)Gal = molecular target: GalNAc(a1-3)Gal
# Summary of the method: as §1
# GalNAc(a1-3)GalNAc = molecular target: GalNAc(a1-3)GalNAc
# Summary of the method: as §1
# [1] = molecular target: GalNAc(b1-3)Gal(a1-4)Gal(b1-4)GlcNAc
# Summary of the method: as §1
# GalNAc(b1-3)GalNAc = molecular target: GalNAc(b1-3)GalNAc
# Summary of the method: as §1
# GalNAc(b1-4)GlcNAc = molecular target: GalNAc(b1-4)GlcNAc
# Summary of the method: as §1
# Glc(a1-4)Glc = molecular target: Glc(a1-4)Glc
# Summary of the method: as §1
# Glc(a1-6)Glc(a1-6)Glc = molecular target: Glc(a1-6)Glc(a1-6)Glc
# Summary of the method: as §1
# Glc(b1-4)Glc = molecular target: Glc(b1-4)Glc
# Summary of the method: as §1
# Glc(b1-6)Glc = molecular target: Glc(b1-6)Glc
# Summary of the method: as §1
# GlcA(b1-3)Gal = molecular target: GlcA(b1-3)Gal
# Summary of the method: as §1
# GlcA(b1-6)Gal = molecular target: GlcA(b1-6)Gal
# Summary of the method: as §1
# [2] = molecular target: GlcNAc(a1-3)Gal(b1-4)GlcNAc
# Summary of the method: as §1
# [3] = molecular target: GlcNAc(a1-6)Gal(b1-4)GlcNAc
# Summary of the method: as §1
# [4] = molecular target: GlcNAc(b1-2)Gal(b1-3)GalNAc
# Summary of the method: as §1
# [5] = molecular target: GlcNAc(b1-2)Man(a1-3)[GlcNAc(b1-2)Man(a1-6)]Man(b1-4)GlcNAc(b1-4)GlcNAc
# Summary of the method: as §1
# GlcNAc(b1-3)Gal = molecular target: GlcNAc(b1-3)Gal
# Summary of the method: as §1
# [6] = molecular target: GlcNAc(b1-3)Gal(b1-3)GalNAc
# Summary of the method: as §1
# GlcNAc(b1-3)Gal(b1-4)Glc = molecular target: GlcNAc(b1-3)Gal(b1-4)Glc
# Summary of the method: as §1
# [7] = molecular target: GlcNAc(b1-3)Gal(b1-4)GlcNAc
# Summary of the method: as §1
# [8] = molecular target: GlcNAc(b1-3)Gal(b1-4)GlcNAc(b1-3)Gal(b1-4)GlcNAc
# Summary of the method: as §1
# GlcNAc(b1-3)GalNAc = molecular target: GlcNAc(b1-3)GalNAc
# Summary of the method: as §1
# [9] = molecular target: GlcNAc(b1-3)[GlcNAc(b1-6)]Gal(b1-4)GlcNAc
# Summary of the method: as §1
# [10] = molecular target: GlcNAc(b1-3)[GlcNAc(b1-6)]GalNAc
# Summary of the method: as §1
# [11] = molecular target: GlcNAc(b1-3)[GlcNAc(b1-6)]GlcNAc(b1-4)GlcNAc
# Summary of the method: as §1
# [12] = molecular target: GlcNAc(b1-4)Gal(b1-4)GlcNAc
# Summary of the method: as §1
# [13] = molecular target: GlcNAc(b1-4)GlcNAc(b1-4)GlcNAc
# Summary of the method: as §1
# [14] = molecular target: GlcNAc(b1-4)GlcNAc(b1-4)GlcNAc(b1-4)GlcNAc(b1-4)GlcNAc
# Summary of the method: as §1
# [15] = molecular target: GlcNAc(b1-4)GlcNAc(b1-4)GlcNAc(b1-4)GlcNAc(b1-4)GlcNAc(b1-4)GlcNAc
# Summary of the method: as §1
# [16] = molecular target: GlcNAc(b1-4)[GlcNAc(b1-6)]GalNAc
# Summary of the method: as §1
# [17] = molecular target: GlcNAc(b1-6)Gal(b1-4)GlcNAc
# Summary of the method: as §1
# GlcNAc(b1-6)GalNAc = molecular target: GlcNAc(b1-6)GalNAc
# Summary of the method: as §1
# Kdn(a2-3)Gal(b1-3)GlcNAc = molecular target: Kdn(a2-3)Gal(b1-3)GlcNAc
# Summary of the method: as §1
# Kdn(a2-3)Gal(b1-4)GlcNAc = molecular target: Kdn(a2-3)Gal(b1-4)GlcNAc
# Summary of the method: as §1
# [18] = molecular target: Man(a1-2)Man(a1-2)Man(a1-3)Man
# Summary of the method: as §1
# [19] = molecular target: Man(a1-2)Man(a1-2)Man(a1-6)[Man(a1-3)]Man
# Summary of the method: as §1
# Man(a1-2)Man(a1-3)Man = molecular target: Man(a1-2)Man(a1-3)Man
# Summary of the method: as §1
# [20] = molecular target: Man(a1-2)Man(a1-3)[Man(a1-2)Man(a1-6)]Man
# Summary of the method: as §1
# [21] = molecular target: Man(a1-2)Man(a1-3)[Man(a1-2)Man(a1-6)]Man(a1-6)[Man(a1-2)Man(a1-2)Man(a1-3)]Man(b1-4)GlcNAc(b1-4)GlcNAc
# Summary of the method: as §1
# [22] = molecular target: Man(a1-2)Man(a1-3)[Man(a1-2)Man(a1-6)]Man(a1-6)[Man(a1-3)[Man(a1-6)]Man(a1-6)]Man(b1-4)GlcNAc(b1-4)GlcNAc
# Summary of the method: as §1
# [23] = molecular target: Man(a1-2)Man(a1-3)[Man(a1-6)]Man(a1-6)[Man(a1-2)Man(a1-3)]Man(b1-4)GlcNAc(b1-4)GlcNAc
# Summary of the method: as §1
# [24] = molecular target: Man(a1-2)Man(a1-6)[Man(a1-3)]Man(a1-6)[Man(a1-2)Man(a1-2)Man(a1-3)]Man(b1-4)GlcNAc(b1-4)GlcNAc
# Summary of the method: as §1
# Man(a1-3)[Man(a1-6)]Man = molecular target: Man(a1-3)[Man(a1-6)]Man
# Summary of the method: as §1
# [25] = molecular target: Man(a1-3)[Man(a1-6)]Man(a1-6)[Man(a1-3)]Man(b1-4)GlcNAc(b1-4)GlcNAc
# Summary of the method: as §1
# [26] = molecular target: Man(a1-3)[Man(a1-6)]Man(b1-4)GlcNAc(b1-4)GlcNAc
# Summary of the method: as §1
# Man(b1-4)GlcNAc = molecular target: Man(b1-4)GlcNAc
# Summary of the method: as §1
# Neu5Ac(a2-3)Gal = molecular target: Neu5Ac(a2-3)Gal
# Summary of the method: as §1
# [27] = molecular target: Neu5Ac(a2-3)Gal(b1-3)GalNAc
# Summary of the method: as §1
# [28] = molecular target: Neu5Ac(a2-3)Gal(b1-3)GalNAc(b1-3)Gal(a1-4)Gal(b1-4)Glc
# Summary of the method: as §1
binder,measurement,setting,value
PMA (Polygonatum multiflorum) (protein) LLTTTLFVFISSTRSLASTNVLYSDVGNAILNAKESLIYGDYRLDMQSDCNLVLYNKAAPYWASGTRWSWGGNCHLNLQSNGELVMYAYLGRTRIAIWRSGIISATGSYALVLKYDGALHVHGPSLWSTNATGPTTPTTASWSIDSTLWSGDVATIGPTIANGDYKLELLDTCNLTLSNTKTGQVLWYTNTTDWVHDCYVNIEGNGELKIKYLGGATLWSNKVGAGYTNNYVLGLRPDGKLDTYNAPIWSPTIGPGVHVAPAVYNASSNAVAAEGNGEKIAMVTGRAKNST,glycan array binding signal (z-score),Gal4S6S(b1-4)GlcNAc,-0.223
same,glycan array binding signal (z-score),Gal6S(b1-4)Glc,-0.257
same,glycan array binding signal (z-score),Gal6S(b1-4)Glc6S,-0.242
same,glycan array binding signal (z-score),Gal6S(b1-4)GlcNAc,-0.244
same,glycan array binding signal (z-score),GalNAc(a1-3)Gal,-0.253
same,glycan array binding signal (z-score),GalNAc(a1-3)GalNAc,-0.24
same,glycan array binding signal (z-score),[1],-0.236
same,glycan array binding signal (z-score),GalNAc(b1-3)GalNAc,-0.2
same,glycan array binding signal (z-score),GalNAc(b1-4)GlcNAc,-0.246
same,glycan array binding signal (z-score),Glc(a1-4)Glc,-0.238
same,glycan array binding signal (z-score),Glc(a1-6)Glc(a1-6)Glc,-0.183
same,glycan array binding signal (z-score),Glc(b1-4)Glc,-0.221
same,glycan array binding signal (z-score),Glc(b1-6)Glc,0.21
same,glycan array binding signal (z-score),GlcA(b1-3)Gal,-0.254
same,glycan array binding signal (z-score),GlcA(b1-6)Gal,-0.257
same,glycan array binding signal (z-score),[2],-0.263
same,glycan array binding signal (z-score),[3],-0.257
same,glycan array binding signal (z-score),[4],-0.242
same,glycan array binding signal (z-score),[5],5.03
same,glycan array binding signal (z-score),GlcNAc(b1-3)Gal,-0.263
same,glycan array binding signal (z-score),[6],-0.241
same,glycan array binding signal (z-score),GlcNAc(b1-3)Gal(b1-4)Glc,-0.237
same,glycan array binding signal (z-score),[7],-0.244
same,glycan array binding signal (z-score),[8],-0.135
same,glycan array binding signal (z-score),GlcNAc(b1-3)GalNAc,-0.259
same,glycan array binding signal (z-score),[9],-0.243
same,glycan array binding signal (z-score),[10],-0.257
same,glycan array binding signal (z-score),[11],-0.247
same,glycan array binding signal (z-score),[12],-0.257
same,glycan array binding signal (z-score),[13],-0.254
same,glycan array binding signal (z-score),[14],-0.25
same,glycan array binding signal (z-score),[15],-0.262
same,glycan array binding signal (z-score),[16],-0.24
same,glycan array binding signal (z-score),[17],-0.255
same,glycan array binding signal (z-score),GlcNAc(b1-6)GalNAc,-0.246
same,glycan array binding signal (z-score),Kdn(a2-3)Gal(b1-3)GlcNAc,-0.247
same,glycan array binding signal (z-score),Kdn(a2-3)Gal(b1-4)GlcNAc,-0.134
same,glycan array binding signal (z-score),[18],4.06
same,glycan array binding signal (z-score),[19],5.65
same,glycan array binding signal (z-score),Man(a1-2)Man(a1-3)Man,2.54
same,glycan array binding signal (z-score),[20],4.98
same,glycan array binding signal (z-score),[21],1.72
same,glycan array binding signal (z-score),[22],3.03
same,glycan array binding signal (z-score),[23],2.76
same,glycan array binding signal (z-score),[24],4.46
same,glycan array binding signal (z-score),Man(a1-3)[Man(a1-6)]Man,1.01
same,glycan array binding signal (z-score),[25],2.16
same,glycan array binding signal (z-score),[26],4.4
same,glycan array binding signal (z-score),Man(b1-4)GlcNAc,-0.214
same,glycan array binding signal (z-score),Neu5Ac(a2-3)Gal,-0.246
same,glycan array binding signal (z-score),[27],-0.244
same,glycan array binding signal (z-score),[28],-0.226
